This note sets out measurements from PMC4336329 (PLoS ONE, 2015).

The campaign covered roughly 310,000 compounds. About 14,000 (4.5%) showed an effect of 50% or more. Effects have a minus sign here. The list shows a part of the results.
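Note: peak tail current of the secondary pulse compared with the same well before compound.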

The assay deals with human ether-à-go-go-related gene (hERG) potassium channel (human, UniProt Q12809). In words: primary screen, population patch clamp on CHO cells stably expressing hERG.
Chain of human ether-à-go-go-related gene (hERG) potassium channel (Q12809 whole entry, looked up): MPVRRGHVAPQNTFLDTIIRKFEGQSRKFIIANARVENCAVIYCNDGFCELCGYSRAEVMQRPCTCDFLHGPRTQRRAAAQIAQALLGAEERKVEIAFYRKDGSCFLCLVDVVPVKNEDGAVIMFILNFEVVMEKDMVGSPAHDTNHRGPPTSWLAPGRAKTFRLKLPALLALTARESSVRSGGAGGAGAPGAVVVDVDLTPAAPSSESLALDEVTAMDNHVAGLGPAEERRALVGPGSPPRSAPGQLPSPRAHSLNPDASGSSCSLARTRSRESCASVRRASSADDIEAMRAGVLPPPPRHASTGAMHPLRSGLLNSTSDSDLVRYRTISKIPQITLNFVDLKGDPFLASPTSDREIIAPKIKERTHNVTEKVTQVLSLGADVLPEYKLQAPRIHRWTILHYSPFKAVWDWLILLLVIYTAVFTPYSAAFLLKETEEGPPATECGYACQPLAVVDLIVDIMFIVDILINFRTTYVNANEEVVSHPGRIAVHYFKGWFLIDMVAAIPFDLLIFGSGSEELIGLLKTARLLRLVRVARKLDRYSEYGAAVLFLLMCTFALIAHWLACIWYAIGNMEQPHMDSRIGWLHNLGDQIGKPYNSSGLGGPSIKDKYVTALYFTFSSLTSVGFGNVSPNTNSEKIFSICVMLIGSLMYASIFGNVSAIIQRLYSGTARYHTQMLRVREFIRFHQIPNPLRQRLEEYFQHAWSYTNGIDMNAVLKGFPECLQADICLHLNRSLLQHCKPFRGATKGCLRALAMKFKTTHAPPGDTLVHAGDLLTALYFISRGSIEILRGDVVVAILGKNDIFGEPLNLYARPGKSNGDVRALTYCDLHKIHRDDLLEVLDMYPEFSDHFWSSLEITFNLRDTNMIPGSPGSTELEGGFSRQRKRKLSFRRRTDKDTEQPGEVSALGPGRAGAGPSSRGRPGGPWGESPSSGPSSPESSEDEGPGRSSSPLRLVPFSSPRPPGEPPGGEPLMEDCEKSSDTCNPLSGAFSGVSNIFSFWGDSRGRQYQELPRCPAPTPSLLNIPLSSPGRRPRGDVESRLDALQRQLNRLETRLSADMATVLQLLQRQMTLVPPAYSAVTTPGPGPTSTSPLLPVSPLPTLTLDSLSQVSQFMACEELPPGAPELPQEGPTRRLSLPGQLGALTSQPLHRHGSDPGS
In the case of `COc1ccc(C(=O)NC(C)c2csc(C)n2)cc1OC1CCN(C(C)=O)CC1` (stereo not shown), the “hERG current change (%, negative = inhibition) at 10uM” value was determined as 15%.
`O=C(CCC1CCCN(C(=O)c2ccc3[nH]ccc3c2)C1)N1CCN(c2ccccn2)CC1` (stereo not shown): the “hERG current change (%, negative = inhibition) at 10uM” value was determined as 21.6%.
As for `O=C(NCC(c1ccco1)N1CCOCC1)c1ccc(Cl)cc1` (stereo not shown), the “hERG current change (%, negative = inhibition) at 10uM” value is listed as -0.209%.
Turning to `COc1ccc(-c2c(C#Cc3ccsc3)c3cc(-c4ccc5c(c4)OCO5)ccc3n2C)cc1`, the “hERG current change (%, negative = inhibition) at 10uM” value was 21.7%.
Consider `O=c1cc(-c2ccccc2)nc(N2CCN(Cc3ccc4c(c3)OCO4)CC2)[nH]1`, for which the “hERG current change (%, negative = inhibition) at 10uM” value is -6.28%.
For `CCn1c(SCC(=O)Nc2ccc(N(C)C)cc2)nnc1-c1ccco1` the value was -8.45%; for `Cc1nnc(NC(=O)c2ccc(S(=O)(=O)N(C)Cc3ccccc3)cc2)o1`, -8.57%.
On to `Cc1cc(C)cc(NC(=O)N2CCC(c3nc4ccccc4o3)CC2)c1`, for which the “hERG current change (%, negative = inhibition) at 10uM” value is recorded as -3.58%.
As for `COc1ccc(CN2CCNC(=O)C2CC(=O)N(C)Cc2nccs2)cc1OC` (stereo not shown), the figure is 13.7%; as for `COc1cc(NC(=O)CSc2nnc3ccccn23)cc(OC)c1`, -7.11%; as for `O=C(Nc1ccc([N+](=O)[O-])cc1)c1cn(-c2ccccc2)nc1-c1cc2ccccc2o1`, 8.92%.
As for `Oc1ccc(N=Cc2ccc(OCc3ccccc3)cc2)cc1`, the figure is 26.2%.
Turning to `COc1ccc(OCC(O)CN2CCN(c3ccc(OC)cc3)CC2)cc1.Cl` (stereo not shown), the “hERG current change (%, negative = inhibition) at 10uM” value is listed as -37.7%.
With `CCOC(=O)N1CCC(N2Cc3cccc(C(=O)NCc4ccc5c(c4)OCO5)c3C2=O)CC1`, the “hERG current change (%, negative = inhibition) at 10uM” value is listed as -19.5%.
As for `CCOc1ccc(NC(=O)Nc2nnc(CC(=O)NCc3ccccc3)s2)cc1`, the figure is 21.7%.
Consider `Nc1ccc(NC2C[C@@H](C(=O)O)NC2=O)cc1` (stereo partly shown), for which the “hERG current change (%, negative = inhibition) at 10uM” value stood at 13.2%.
In the case of `C=CCC1(CC=C)CCCN1C(=O)C1CCC(=O)N(CCc2ccc(OC)cc2)C1` (stereo not shown), the “hERG current change (%, negative = inhibition) at 10uM” value is recorded as -18.6%.
For `O=C1C=C(Nc2ccc(F)cc2)c2ccccc2C1=O`, the “hERG current change (%, negative = inhibition) at 10uM” value is -0.176%.
For `COC(=O)CCC(=O)NC(=S)Nc1ccc(S(=O)(=O)Nc2cc(C)on2)cc1`, the “hERG current change (%, negative = inhibition) at 10uM” value stood at 22.2%.
For `Cc1ccccc1Nc1nc(N)nc(CSc2ccccc2)n1` the value was -21%; for `O=C(CN1CCCCCC1)NN(Cc1ccccc1)c1ccccc1.O=C(O)C(=O)O`, -72.3%.
Consider `Cn1c(CC(=O)Nc2ccc(Cl)c(Cl)c2)nnc1SCC(=O)NCc1ccccc1`, for which the “hERG current change (%, negative = inhibition) at 10uM” value is recorded as 4.53%.
Turning to `CC(C)CCN(C(=O)CNC(=O)c1cccs1)C(C(=O)NC1CCCC1)c1ccncc1` (stereo not shown), the “hERG current change (%, negative = inhibition) at 10uM” value is listed as -0.388%.
With `O=C(Cn1cnc2ccccc2c1=O)NCC(=O)N1CCN(c2ccccn2)CC1`, the “hERG current change (%, negative = inhibition) at 10uM” value is on record as 6.51%.
For `COc1ccc(S(=O)(=O)Oc2c(OC)cc(C(=S)N3CCOCC3)cc2OC)cc1` the value was 5.24%; for `Cn1cc(CCC(=O)NCc2ccc3c(c2)OCO3)c2ccccc21`, -8.91%.
For `CC(C)C(C)NC(=O)COc1ncnc2sccc12` (stereo not shown) the value was 30.6%; for `CCOc1ccc(S(=O)(=O)N(C)CC(=O)NCc2ccccn2)cc1Cl`, -27.8%.
Consider `CCN(CC)C(=O)N1CCN(S(=O)(=O)c2ccc(C)c(C)c2)CC1`, for which the “hERG current change (%, negative = inhibition) at 10uM” value came out at 3.67%.
As to `Cn1c(CNc2nc(-c3ccccc3)cs2)nnc1SCC(=O)OC1CCCCC1`, the “hERG current change (%, negative = inhibition) at 10uM” value is -10.1%.
As for `Cc1cc(C)c2c(n1)SCC(=O)N2CC(=O)NCCC1=CCCCC1`, the figure is 8.75%; as for `Cc1ccc2[nH]cc(C(=O)CCl)c2c1`, -7.65%.
Consider `Cc1cc(Cl)nc2c(C(C)C)cccc12`, for which the “hERG current change (%, negative = inhibition) at 10uM” value is given as 33%.
For `O=C(Nn1cnc2ccccc2c1=O)c1ccc(Cl)c([N+](=O)[O-])c1` the value was 5.55%; for `Cc1ccc(C2=NC(C)(C)NC2=O)cc1`, 1.42%.
For the molecule `O=C(c1ccccc1Oc1ccc(C(F)(F)F)cc1[N+](=O)[O-])N1CCOCC1`, the “hERG current change (%, negative = inhibition) at 10uM” value worked out at 1.22%.
As for `CC(C)NC(=S)Nc1ccc2cn[nH]c2c1`, the figure is 8.24%.
Consider `O=C(NC1CCCCC1)c1ccc(Cl)c(NC(=O)c2ccccc2F)c1`, for which the “hERG current change (%, negative = inhibition) at 10uM” value was -7.68%.
Consider `Cc1nc2ccccc2c(=O)n1/N=C/c1ccc(O)cc1O`, for which the “hERG current change (%, negative = inhibition) at 10uM” value is recorded as 10.4%.
For `CCNC(=O)n1cc(-n2cncn2)c(-c2ccccc2)n1`, the “hERG current change (%, negative = inhibition) at 10uM” value is -0.882%.
As to `O=C(Nc1cccn2ncnc12)c1ccc(Cl)cc1`, the “hERG current change (%, negative = inhibition) at 10uM” value is reported as -2.08%.
With `Cc1ccc(NS(=O)(=O)c2ccc(C(=O)N3CCN(c4ncccn4)CC3)cc2)cc1`, the “hERG current change (%, negative = inhibition) at 10uM” value was -29.9%.
For `Cc1cccc2cc(C#N)c(SCC#N)nc12`, the “hERG current change (%, negative = inhibition) at 10uM” value came to 26%.
As for `O=C(NCCc1ccccc1)C1CCC(CNc2nc(=S)[nH]c3ccccc23)CC1` (stereo not shown), the “hERG current change (%, negative = inhibition) at 10uM” value was 9.54%.
With `O=C(NCCCc1ccccc1)C(=O)c1c[nH]c2ccccc12`, the “hERG current change (%, negative = inhibition) at 10uM” value is listed as 11.6%.
Turning to `COc1ccc(CCNC(=O)CN2C(=O)CCSc3ccccc32)c(OC)c1`, the “hERG current change (%, negative = inhibition) at 10uM” value came out at 0.44%.
For `Cc1cccc(CCNC(=O)CCc2nc(-c3ccccc3F)no2)c1`, the “hERG current change (%, negative = inhibition) at 10uM” value is given as -1.49%.
Take `Cc1ccc2nc(NC(=O)CN3CCOCC3)sc2c1`: the “hERG current change (%, negative = inhibition) at 10uM” value is recorded as -17.4%.
For `CNC(=S)N(CCCN(C)C)Cc1cc2cc3c(cc2[nH]c1=O)OCCO3` the value was 14.5%; for `COC(=O)c1ccc2c(=O)[nH]c(COC(=O)c3cccc(S(=O)(=O)N4CCOCC4)c3)nc2c1`, 9.87%; for `COc1ccc(-c2noc(CSc3nc4ccccc4c(=O)n3-c3ccccc3)n2)cc1`, -7.31%.
For the molecule `COCCn1nnnc1C(C(C)C)N(Cc1cccnc1)Cc1ccccc1Cl` (stereo not shown), the “hERG current change (%, negative = inhibition) at 10uM” value is recorded as -18.5%.
Take `O=C(Cn1c(-c2ccccn2)nc2ccccc21)NCCN1CCOCC1`: the “hERG current change (%, negative = inhibition) at 10uM” value amounted to 4.17%.
With `CC(=O)OCc1c(C(F)(F)F)nn(C)c1SCc1ccc(Cl)cc1`, the “hERG current change (%, negative = inhibition) at 10uM” value worked out at 8.19%.
On to `CC(C)Oc1ccc(/C=N/NC(N)=S)cc1`, for which the “hERG current change (%, negative = inhibition) at 10uM” value came out at 15.3%.
As for `O=C1Nc2cc(C(=O)N3CCN(c4ccccn4)CC3)ccc2S/C1=C\c1ccccc1`, the figure is 1.94%.
Regarding `Nc1nc(NCc2ccco2)nc(NCCO)c1[N+](=O)[O-]`, the “hERG current change (%, negative = inhibition) at 10uM” value was determined as 3.22%.
On to `CN(C)CCNC(=O)/C=N/O`, for which the “hERG current change (%, negative = inhibition) at 10uM” value is listed as 10.3%.
On to `COc1ccc2c(-c3ccccc3)cc(SCC(=O)NC3CCS(=O)(=O)C3)nc2c1` (stereo not shown), for which the “hERG current change (%, negative = inhibition) at 10uM” value is recorded as 15.1%.
Regarding `O=S(=O)(c1ccc(F)cc1)N1CCN(c2ccccn2)CC1`, the “hERG current change (%, negative = inhibition) at 10uM” value is listed as -0.814%.
Regarding `O=C(Nc1ccc(Cl)cc1C(=O)NCC1CCCO1)c1ccco1` (stereo not shown), the “hERG current change (%, negative = inhibition) at 10uM” value is -10.8%.
As for `COc1ccc(NS(=O)(=O)c2ccc(Cl)c(C(=O)O)c2)cc1S(=O)(=O)N1CCCCC1`, the figure is 36.9%; as for `CC(C)CN(C(=O)COC(=O)CSc1ccccc1F)c1c(N)n(Cc2ccccc2)c(=O)[nH]c1=O`, -0.603%.
`O=C(/C=C/c1ccc2c(c1)OCO2)N1CCN(c2n[nH]c(=O)[nH]c2=O)CC1`: the “hERG current change (%, negative = inhibition) at 10uM” value amounted to 22.7%.
As for `O=C(Nc1ccccc1)NC1(C(=O)N2CCC(O)CC2)CCCCC1`, the figure is -15.7%.
For `Cc1ccc(OCC(O)CN2CCOCC2)c(C)c1.Cl` (stereo not shown) the value was 20.2%; for `NC1=NC(=O)/C(=C/c2ccccc2OS(=O)(=O)c2ccc3ccccc3c2)S1`, 4.27%; for `COC(=O)Cn1cc(C=C2C(=O)NC(=O)NC2=O)c2ccccc21`, 12.5%.
As for `Cc1ccc(NS(=O)(=O)c2cccc(C(=O)NCCCn3ccnc3)c2)cc1`, the “hERG current change (%, negative = inhibition) at 10uM” value was determined as 7.72%.
Consider `Cc1ccc(C(=O)CSc2nnc(-c3ccco3)n2Cc2ccccc2)cc1`, for which the “hERG current change (%, negative = inhibition) at 10uM” value is -17.8%.
For `CC(=O)C(C)Sc1nnc(-c2ccccc2F)n1C1CC1` (stereo not shown) the value was 26.5%.
For `CCCc1cc(=O)[nH]c(SCC(=O)c2c[nH]c3ccccc23)n1` the value was 23.3%; for `Cn1c(N)c(C(=O)COC(=O)C2CCCCC2)c(=O)n(C)c1=O`, -11.2%; for `CC/C(=N/NS(=O)(=O)c1ccc(Cl)cc1)c1ccc(O)cc1`, -27.7%.
For `COc1cc(N(C)C)c([N+](=O)[O-])cc1C(=O)N1CCN(Cc2ccccc2)CC1` the value was 9.99%; for `CC(C)C(OC(=O)c1ccco1)C(=O)NCc1ccccc1` (stereo not shown), 11.2%.
Take `CCCN1Cc2cccc(C(=O)Nc3ccc(CC)cc3)c2C1=O`: the “hERG current change (%, negative = inhibition) at 10uM” value amounted to 8.1%.
Take `Cc1ccc(S(=O)(=O)Nc2ccccc2CNc2ncc(Br)cc2Br)cc1`: the “hERG current change (%, negative = inhibition) at 10uM” value came to 4.66%.
Turning to `COC(CNC(=O)C1CCN(S(=O)(=O)c2cccc3nsnc23)CC1)OC`, the “hERG current change (%, negative = inhibition) at 10uM” value is listed as 14.3%.
Regarding `COc1ccc2c(c1)c(C(=O)CN1CCC3(CC1)OCCO3)c(C)n2C`, the “hERG current change (%, negative = inhibition) at 10uM” value is -3.05%.
Regarding `CS(=O)(=O)Nc1cccc(-c2cnc3ccccc3n2)c1`, the “hERG current change (%, negative = inhibition) at 10uM” value was -70.4%.
As for `C=CCOc1ccc(C2C(C#N)=C(N)N(N(C)C)C3=C2C(=O)CCC3)cc1` (stereo not shown), the figure is -32.1%.
Take `CC1CN(C(=O)CCn2c(=O)oc3ccccc32)CC(C)O1` (stereo not shown): the “hERG current change (%, negative = inhibition) at 10uM” value is 6.91%.
With `CC(=O)N/C(=C/c1cccnc1)C(=O)Nc1ccc(Cl)cc1`, the “hERG current change (%, negative = inhibition) at 10uM” value was -24.3%.
As for `Nc1nc(NCCOCCO)nc(Nc2cccc(F)c2)c1[N+](=O)[O-]`, the figure is 7.09%; as for `CCOC(=O)C1CCCN(C(=O)c2ccc(S(=O)(=O)NCc3ccco3)cc2)C1` (stereo not shown), -4.7%; as for `CC(=O)N(c1ccc2oc(=O)sc2c1)S(=O)(=O)c1cccs1`, -6.67%.
For `CCCOc1ccc(C(CC(=O)O)NC(=O)C23CC4CC(CC(C4)C2)C3)cc1` (stereo not shown), the “hERG current change (%, negative = inhibition) at 10uM” value was -4.63%.
